± gives the standard error. Variants at the floor of the assay are shown more often than the library holds them.
B1: glmS ribozyme (parent)
chain: AUAAAAGCGCCAGAACUACAGAAAUGUAGUUGACGAGGAGGAGGUUUAUCGAAUUUUCGGCGGAUGCCUCCAAA

Columns and labels:
Settings in all cases: with glucosamine-6-phosphate
glucosamine-6-phosphate [1] = variants of: B1; experiment: self-cleavage kobs at 40 uM GlcN6P; higher = faster cleavage; RNA array
Summary of the method: (§1)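 kobs was derived by fitting per-tile medians to one- or two-exponential decays after normalising signals to baseline and to non-cleaving reference variants. Those signals came from barcoded ribozyme variants transcribed in situ by E. coli RNA polymerase on sequenced MiSeq chips, followed through a hybridised Cy3 probe at 37 °C and imaged over ~14 h. Glucosamine-6-phosphate (40 μM to 10 mM) in HEPES/KCl/Mg(OAc)2 buffer was flowed in. Weighted Michaelis–Menten fits across concentrations then gave kcat and KM.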

glucosamine-6-phosphate [2] = variants of: B1; experiment: self-cleavage kobs at 2500 uM GlcN6P; higher = faster cleavage; RNA array
Summary of the method: as §1

glucosamine-6-phosphate [3] = variants of: B1; experiment: self-cleavage kobs at 10000 uM GlcN6P; higher = faster cleavage; RNA array
Summary of the method: as §1

glucosamine-6-phosphate [4] = variants of: B1; experiment: self-cleavage kobs at 160 uM GlcN6P; higher = faster cleavage; RNA array
Summary of the method: as §1

glucosamine-6-phosphate [5] = variants of: B1; experiment: self-cleavage kobs at 640 uM GlcN6P; higher = faster cleavage; RNA array
Summary of the method: as §1

Variant	self-cleavage kobs at 40 uM GlcN6P (glucosamine-6-phosphate [1]) [s⁻¹]	self-cleavage kobs at 2500 uM GlcN6P (glucosamine-6-phosphate [2]) [s⁻¹]	self-cleavage kobs at 10000 uM GlcN6P (glucosamine-6-phosphate [3]) [s⁻¹]	self-cleavage kobs at 160 uM GlcN6P (glucosamine-6-phosphate [4]) [s⁻¹]	self-cleavage kobs at 640 uM GlcN6P (glucosamine-6-phosphate [5]) [s⁻¹]
A14U C34G U54C	< 1e-05	< 1e-05	< 1e-05	–	–
A15C U46A C58U	< 1e-05	–	–	–	–
C10U C11G G43C G59A	< 1e-05	< 1e-05	–	< 1e-05	–
A12C A36C U54G	< 1e-05	–	–	–	–
C11U U30C A52C	< 1e-05	–	–	–	–
A12U A53U	0.00177 ± 0.00024	0.0274 ± 0.007	0.112 ± 0.036	0.00421 ± 0.00071	0.0159 ± 0.0029
C10U A14C A36G G41A	< 1e-05	–	–	–	–
C10G U47C	< 1e-05	–	< 1e-05	–	< 1e-05
A14U A36G	< 1e-05	–	–	–	–
A12G A42U	< 1e-05	–	–	< 1e-05	–
C10U A33C C58G	< 1e-05	–	–	–	–
G13A U47C C58U C71U	< 1e-05	–	–	–	–
C11G G32C G59U	< 1e-05	–	–	–	–
A14U C68U	2.73e-05 ± 7.7e-06	0.000422 ± 6.8e-05	–	6.57e-05 ± 1.2e-05	0.000297 ± 3.8e-05
A12G A33C U45C U47G C71U	< 1e-05	–	–	–	–
G13C A36G A39U	< 1e-05	< 1e-05	–	–	< 1e-05
C11G G37A U54A U56A C58A C61U	< 1e-05	–	< 1e-05	–	–
A15C C50G A53G G62A C70G	0.000105 ± 3e-05	0.000125 ± 4.1e-05	8.78e-05 ± 1.9e-05	–	8.17e-05 ± 2.4e-05
A12U A39U	0.00122 ± 0.00014	0.00925 ± 0.0022	0.0541 ± 0.013	0.0029 ± 0.00074	0.0129 ± 0.0047
A15C A48G	< 1e-05	–	–	< 1e-05	–
C10U A14G G29U	< 1e-05	–	–	–	–
A12U G62C C71U	< 1e-05	–	< 1e-05	–	< 1e-05

Variant	self-cleavage kobs at 40 uM GlcN6P (glucosamine-6-phosphate [1]) [s⁻¹]	self-cleavage kobs at 2500 uM GlcN6P (glucosamine-6-phosphate [2]) [s⁻¹]	self-cleavage kobs at 10000 uM GlcN6P (glucosamine-6-phosphate [3]) [s⁻¹]	self-cleavage kobs at 160 uM GlcN6P (glucosamine-6-phosphate [4]) [s⁻¹]	self-cleavage kobs at 640 uM GlcN6P (glucosamine-6-phosphate [5]) [s⁻¹]
C11A A33U U45A	< 1e-05	–	–	–	–
A12U G44U	3.83e-05 ± 8.2e-06	–	–	–	–
A15C U69C	0.000108 ± 2.5e-05	0.000165 ± 4.4e-05	0.00087 ± 0.00022	–	0.000226 ± 8.5e-05
C11U G13A A33C A53U	< 1e-05	–	–	–	–
A12G U31C G63A	< 1e-05	–	–	–	–
A14G A39G G60A C70G	< 1e-05	–	–	–	< 1e-05
C10U A14C U65C	< 1e-05	–	–	< 1e-05	< 1e-05
C11A A12G G32A G43U G66A C67U C68G	< 1e-05	–	< 1e-05	–	–
C10U A53U	< 1e-05	–	–	< 1e-05	–
C10U G13A C68A	< 1e-05	–	–	–	–
A15G A33C U46G	< 1e-05	–	–	–	–
A14U G38C U57A	< 1e-05	–	–	–	–
C11G G37C G40C U45A	< 1e-05	< 1e-05	–	–	–
A14C C34U G60C	< 1e-05	–	–	–	–
A14U G38U G43A A64C	< 1e-05	–	< 1e-05	–	–
A14C U31A	0.000559 ± 0.00011	–	–	–	–
C11U A64C	< 1e-05	–	< 1e-05	–	–
C11G G40A C50G U55C C70U	< 1e-05	–	< 1e-05	–	–
C10U A52C U57G	< 1e-05	< 1e-05	< 1e-05	–	< 1e-05
C10U C11G G62U	< 1e-05	–	< 1e-05	–	–
A12U U49C	< 1e-05	< 1e-05	–	–	–
C11A U49G C67G	4.47e-05 ± 1.8e-05	–	–	–	–

Variant	self-cleavage kobs at 40 uM GlcN6P (glucosamine-6-phosphate [1]) [s⁻¹]	self-cleavage kobs at 2500 uM GlcN6P (glucosamine-6-phosphate [2]) [s⁻¹]	self-cleavage kobs at 10000 uM GlcN6P (glucosamine-6-phosphate [3]) [s⁻¹]	self-cleavage kobs at 160 uM GlcN6P (glucosamine-6-phosphate [4]) [s⁻¹]	self-cleavage kobs at 640 uM GlcN6P (glucosamine-6-phosphate [5]) [s⁻¹]
C10G U45A	< 1e-05	–	–	–	< 1e-05
G13C U45C	< 1e-05	< 1e-05	–	< 1e-05	< 1e-05
A14C A36C G63A U65C	< 1e-05	–	< 1e-05	< 1e-05	–
A12G A52G A53G	< 1e-05	–	–	< 1e-05	–
A14G G66C	4.79e-05 ± 9.1e-06	0.00114 ± 0.00025	0.00147 ± 0.00015	–	0.000484 ± 0.00012
A12C A53U C67G C70G	< 1e-05	–	–	–	–
A12U C58U G59C	< 1e-05	–	–	–	–
A14C U49A G63A	< 1e-05	–	–	–	–
C11G A33G	< 1e-05	< 1e-05	< 1e-05	–	< 1e-05
C10U A33U A52U	< 1e-05	–	< 1e-05	–	< 1e-05
A12C G32A A52G	< 1e-05	–	–	< 1e-05	< 1e-05
A15C C16G	5.89e-05 ± 1.4e-05	–	0.00295 ± 0.00045	–	0.000438 ± 5.6e-05
G13C A36C U46G C68A	< 1e-05	–	< 1e-05	–	–
G13C U31C A39C	< 1e-05	–	–	–	–
A14U G37C	< 1e-05	–	–	–	–
A14C C58U G63U	< 1e-05	–	–	–	–
A14U C67A	6.24e-05 ± 7.4e-06	0.00137 ± 0.00031	0.00155 ± 0.00023	0.000172 ± 2.5e-05	0.000406 ± 5.4e-05
C11A A52U	< 1e-05	–	–	< 1e-05	< 1e-05
A12U U47G	0.000706 ± 0.0001	0.0123 ± 0.0039	0.0118 ± 0.002	–	–
A14C G29A C61G	< 1e-05	–	< 1e-05	–	–
G13C G62U	< 1e-05	< 1e-05	< 1e-05	< 1e-05	< 1e-05
A12G G13C G32U G40A A64C	< 1e-05	–	–	–	–

Variant	self-cleavage kobs at 40 uM GlcN6P (glucosamine-6-phosphate [1]) [s⁻¹]	self-cleavage kobs at 2500 uM GlcN6P (glucosamine-6-phosphate [2]) [s⁻¹]	self-cleavage kobs at 10000 uM GlcN6P (glucosamine-6-phosphate [3]) [s⁻¹]	self-cleavage kobs at 160 uM GlcN6P (glucosamine-6-phosphate [4]) [s⁻¹]	self-cleavage kobs at 640 uM GlcN6P (glucosamine-6-phosphate [5]) [s⁻¹]
A14U G40A	4.43e-05 ± 1e-05	–	0.00161 ± 0.00021	–	0.000643 ± 0.00013
A12G C61U	< 1e-05	–	< 1e-05	< 1e-05	–
A12G G51A C67G	< 1e-05	–	< 1e-05	–	–
A14G A39C	0.000225 ± 3.6e-05	0.00921 ± 0.0025	0.0134 ± 0.0019	0.000699 ± 0.00017	0.00281 ± 0.00047
A14G A39G	0.004 ± 0.00057	–	0.138 ± 0.052	0.00304 ± 0.00096	0.0236 ± 0.0054
C10U U49A	< 1e-05	< 1e-05	< 1e-05	–	< 1e-05
G13U G37U U46C	< 1e-05	–	< 1e-05	–	–
A15C A36C G38U	< 1e-05	–	–	–	–
A12C G66U	5.83e-05 ± 1.3e-05	0.000865 ± 0.00014	0.00133 ± 0.0002	9.73e-05 ± 1.3e-05	0.000586 ± 6.9e-05
A14G A33C	< 1e-05	–	–	–	–
A15C G41A C70U	0.000261 ± 6.2e-05	–	0.0111 ± 0.0023	–	–
A12U A48C C58G	< 1e-05	–	–	< 1e-05	< 1e-05
A12G G41U C68A	< 1e-05	–	–	–	–
G13A G59U	< 1e-05	–	–	–	–
A15C A36C	< 1e-05	–	–	–	–
A12G G29C	< 1e-05	4.98e-05 ± 1.3e-05	0.000123 ± 1.4e-05	< 1e-05	3.94e-05 ± 1.1e-05
C10U A15U G29A	< 1e-05	–	< 1e-05	–	< 1e-05
C10U G29A A36G G66U C68U	< 1e-05	–	< 1e-05	–	–
G13A G44C C61A U69G	< 1e-05	–	–	–	–
C10G U69G	< 1e-05	< 1e-05	< 1e-05	–	< 1e-05
A14G G37C	< 1e-05	–	–	–	–
G13U A15C G44U G60U	< 1e-05	< 1e-05	< 1e-05	< 1e-05	< 1e-05

Variant	self-cleavage kobs at 40 uM GlcN6P (glucosamine-6-phosphate [1]) [s⁻¹]	self-cleavage kobs at 2500 uM GlcN6P (glucosamine-6-phosphate [2]) [s⁻¹]	self-cleavage kobs at 10000 uM GlcN6P (glucosamine-6-phosphate [3]) [s⁻¹]	self-cleavage kobs at 160 uM GlcN6P (glucosamine-6-phosphate [4]) [s⁻¹]	self-cleavage kobs at 640 uM GlcN6P (glucosamine-6-phosphate [5]) [s⁻¹]
C11U G59C	< 1e-05	–	< 1e-05	< 1e-05	–
C10U A53U G59C C68G	< 1e-05	–	–	–	–
G13C U57A	< 1e-05	–	–	< 1e-05	–
C11U U46G G59U	< 1e-05	–	–	–	–
C10U G40A G41A	< 1e-05	–	–	–	< 1e-05
A14U G41A G66C U69G	< 1e-05	< 1e-05	–	–	–
A14C C16A	< 1e-05	6.73e-05 ± 1.1e-05	5.95e-05 ± 6.9e-06	–	2.75e-05 ± 1.3e-05
A14C A64C	< 1e-05	–	–	< 1e-05	< 1e-05
C11G G44C C58A	< 1e-05	–	< 1e-05	–	–
C10G G62U C71G	< 1e-05	–	–	–	–
A12U C71G	0.000203 ± 2.3e-05	0.000947 ± 0.00021	0.00305 ± 0.00048	0.000316 ± 5.2e-05	0.00125 ± 0.00015
A12U C70G	0.000124 ± 1.2e-05	–	0.001 ± 0.00029	0.000175 ± 2.3e-05	0.000558 ± 0.00013
A12C G40U U45G A48U	< 1e-05	–	–	–	–
A14U U57G	< 1e-05	–	–	–	–
A14G C16U G41U	0.000207 ± 7.3e-05	–	0.00243 ± 0.00096	–	–
C10U G41U U55G	< 1e-05	< 1e-05	< 1e-05	–	–
G13U A36G G62A	< 1e-05	–	–	–	–
A15C G37U A53C G59U	< 1e-05	–	–	–	–
G13A G32A G59A	< 1e-05	–	–	–	–
